# Data published in PubChem BioAssay (NCI).
# The source holds several records for some structures; these can differ, active in one and inactive in another.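 Negative percent growth values reflect cell death: -40 means 40% of the cells present at the start died, and -100 means all died.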 The source holds more than one record for some entries. The other results are left out here. Rule for the calls: active = growth percent below 10; inactive = the rest. An entry can have further records. These are repeated runs of one drug, at the concentration stated with the values; each value is one run. Counts like (3×) say how often a value occurs here.
# Columns and labels:
# SK-MEL-2 melanoma = assay: NCI-60 one-dose screen, 48 h (100 = growth as untreated, 0 = no growth, -100 = all killed); conditions: 25 µM
# SN12C renal = assay: as above; conditions: 0.25 µM
compound,measurement,setting,value
COc1cccc2c1C(=O)c1c(O)c3c(c(O)c1C2=O)C[C@@](O)(C(=O)CO)C[C@@H]3OC1CC(N)C(O)C(C)O1 (stereo not given in full),growth,SK-MEL-2 melanoma; runs of 1992,"active: -93.7 (2×), -92.4, -96.5, -94.2, -96.1, -92.5 (2×), -90.8 (2×), -92.6 (2×), -91.2, -93.8 (3×), -94.1 (3×), -98 (4×), -80.4, -97.2 (2×), -95.3, -94.5, -78, -95.5, -92.1, -91.5, -93.9, -88.3 (2×), -91.6, -82.7, -78.4, -90.4, -90.7, -76.3, -89.4, -91.4, -90.1, -97 (2×), -99.9, -95.8, -99.4, -82.8, -100 (10×), -95.2, -89.1, -71.8, -78.6, -89.6, -95.1, -96.7 (2×), -94.6, -84.8, -97.8 (2×), -97.6, -91, -79, -95.6, -96 (2×), -97.7, -96.9, -92.7, -66.3, -96.4 (2×), -96.3, -98.7 (2×), -99.8, -86.8, -95, -89.3, -88.2, -88.5, -88.4, -85.4, -98.8, -97.9, -98.3 (2×), -87.2, -99.7, -93.2, -97.3, -98.1, -89.5, -88.8, -99.2, -98.9, -89, -94.3, -83.1, -93.4, -94.8, -63.1, -72.1, -90.6%"
same,growth,SK-MEL-2 melanoma; runs of 1993,"active: -91.5, -72.7, -75.7, -95.1, -78.7, -91.4, -94.8, -95.4 (2×), -61.6, -67.1, -100, -86.2, -75.1, -73.9, -87.5, -69.1, -87.6, -52.3, -82.2, -97.4, -74.4, -86.7, -50.3, -81.2, -53.8, -46.1, -60.4, -83.7, -93.9, -99.1%"
same,growth,SK-MEL-2 melanoma; runs of 1994,"active: -46.9, -76.4, -50.4, -91.1 (2×), -97.4, -84.4, -89.1, -99.3, -62.5, -92.9, -47.5, -90.9, -45.7, -76.1, -46.4, -86.5, -89.5, -89.7, -83.4, -53.8, -71.8, -82.7, -61% and inactive: 110%"
same,growth,SK-MEL-2 melanoma; runs of 1995,"active: -75.5, -91, -56.4, -61.3, -70.5, -90.8, -89.9, -98.2 (2×), -75, -95.1, -99.7, -80, -85.5, -91.4, -96.7, -84.5, -99, -97.3, -68.4, -56, -58.5, -86.3, -29.4, -92.8, -34.2, -88.3, -55.2, -61.2, -100, -86.6, -84.7, -97.6, -99.8, -90.7, -93.7%"
same,growth,SK-MEL-2 melanoma; runs of 1996,"active: -34.7, -55.9, -98.3 (2×), -87.3, -63.9, -99 (2×), -96 (2×), -91, -99.1, -73.4, -54.7, -84.2, -86.1, -77, -57.2, -86.5, -66.6, -90.1, -47.6, -63.6, -98.9, -79.4, -68.3, -66.7 (2×), -54.1, -64.4, -47.9, -75.1, -75.8, -82.2, -71.5, -56.7, -69.5, -86.7, -94.9, -87.4, -92.6 (2×), -83.9, -52.1, -64.2, -38.3, -97, -54.5, -92.5, -95.7, -26.8, -76.2, -67.2, -96.9, -41.4, -17.5, -84.6% and inactive: 99.7%, 114%"
same,growth,SK-MEL-2 melanoma; runs of 1997,"active: -86.3, -28.7, -58.3, -99.1, -92.4 (2×), -90.3, -83.9, -88.7, -93.3, -91.1, -94.8, -55.9, -82.2, -88, -89.3, -97.9, -79.8, -62.5, -99.2, -78.9, -34.4, -46.8, -90.7, -87.5, -46.5, -96.3, -98, -73, -76, -36.7, -76.4, -70, -54.9, -38.4, -81, -39.1, -67.4, -75.6, -73.8, -31.4, -44.6, -63.7, -82.5%"
same,growth,SK-MEL-2 melanoma; runs of 1998,"active: -71.4, -77.9, -76.7, -67.9, -96.5, -73.3 (2×), -62.8, -67.4, -95.3, -76.5, -34.1, -89, -51.4, -78.4, -69.6, -72.1, -42, -76.4, -85.8, 2.81, -64.8, -50.4, -58.1, -29%"
same,growth,SK-MEL-2 melanoma; runs of 1999,"active: -90.5, -59.1, -59.4, -84.2, -92.1, -82, -95.6, -70.2, -83, -27.9, -80.8, -69.3, -45.2, -80.2, -89.2, -95, -53.3, -93.8%"
same,growth,SK-MEL-2 melanoma; runs of 2000,"active: -100% (2×), -78.6%, -92.2%"
same,growth,SN12C renal; runs of 2006,"inactive: 31%, 21.4%"
same,growth,SN12C renal; runs of 2007,"inactive: 31.2 (2×), 10.3, 26.5, 26.1, 29.8, 28.3 (2×), 33.4, 34.4, 25.3, 35.4, 20.1, 36.2, 12.9, 30.4, 23.8, 21.5, 26.6, 29.9, 17.4, 27.8, 25.8 (2×), 21.2, 39.3, 30.2, 29.2, 26.2, 43.8, 27, 41.9, 31.3, 21.3, 25.2, 24.2, 35.1%"
same,growth,SN12C renal; runs of 2008,"inactive: 30.9, 26.6 (2×), 28.3, 22.7, 21.2, 26.5 (2×), 34.6, 27.5, 24.4, 30.8, 28.9, 28.5, 18.9, 21, 22.6 (2×), 19.4, 24.8, 16, 29.9, 93.8, 26.8, 22.1 (2×), 14.1, 20.7, 13.8, 20.8 (2×), 15.1, 13.5, 23, 18.1, 27.4, 26.3, 25.2, 30.7, 22.4, 39.6, 32.3, 24.3, 23.8, 26.7, 33.3, 26.9, 23.4% and active: 9.8%"
same,growth,SN12C renal; runs of 2009,"inactive: 13, 18.2, 31.1, 26.5 (2×), 24.3, 23.3, 27.8, 35.3, 30.4, 25.5 (3×), 27.5, 30.6, 27.1, 20.9, 22.6 (2×), 21.3 (2×), 26, 23, 21.5, 29.2, 34.1, 25.1 (2×), 24.9, 18.1, 27.2, 25.8, 28.3, 34, 29.6, 18.7, 20.7, 30.2, 25.9 (2×), 12.4, 23.1, 14.7, 12.5, 13.7, 16.4, 10.2, 26.6, 15.4, 12.3, 31.4, 12.8, 36.4, 38.8, 26.3, 20.3, 18.9, 33.3, 21.7 (2×), 34.2, 24.1, 27, 22.4, 20.5% and active: 2.29%, -21.4%"
same,growth,SN12C renal; runs of 2010,"inactive: 21, 27.4 (2×), 29.9, 20.4, 20.5 (2×), 37.3, 28.3, 20.9, 30.3 (3×), 31.5, 24.8, 32.4, 23.4, 32.1, 23.9 (2×), 22.2, 24.9, 26.4 (2×), 25.3, 15.8, 31.9, 27, 26 (2×), 38, 22.5, 25.5, 26.1, 22.7, 19.2, 27.9, 33.2, 29.1, 24.2 (2×), 18.5, 27.7, 28.2, 31.4, 23.8, 27.3%"
same,growth,SN12C renal; runs of 2011,"inactive: 22.4, 24.1, 29.6 (2×), 36.5, 34.8, 24.8 (2×), 16.5, 27.5, 23.9 (2×), 30.3, 26.6, 27, 24.2, 27.3, 29.1, 25.9 (2×), 20.3, 25.1 (3×), 26.5 (2×), 38.5, 33.6, 35.3, 31.2, 30.9 (2×), 20.8, 16.3, 19.9, 19.7, 19.5, 18.7, 17.9, 19.2, 23, 21.7, 22.2, 23.1, 23.7, 25.3, 21.3, 26.1, 28.3, 26.4, 18.5, 21.8, 19, 22.6, 28.8%"
